This is an account of results in the supplement of paper PMC7826260.

Holding throughout (assay): uncleaved DNA left, log2 of reads against the no-enzyme library (log2 ratio); higher = less cleavage (more negative = more Rep cleavage of the k-mer); sequences stand for … in CTCGTCCG…ACCGGAGA
For test [1], the system named is T1, Rep nickase domain of Muscovy duck circovirus.
T1 sequence (residues 1-111, tag not shown): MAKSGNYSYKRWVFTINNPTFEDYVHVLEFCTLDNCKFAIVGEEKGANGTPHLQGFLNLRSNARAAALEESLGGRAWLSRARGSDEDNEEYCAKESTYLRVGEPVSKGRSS
How it is done: (§1)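 A pool of 90-nt single-stranded DNAs with seven random bases just before the constant AC of the nick site (name = the seven bases) was cut by 3 µM recombinant His6-SUMO-tagged Rep nickase domain (300 nM DNA, 50 mM HEPES pH 8.0, 50 mM NaCl, 1 mM MnCl2, 1 h, 37 °C, three replicates). Uncut DNA was amplified and sequenced.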

In test [2] the test system is T2, Rep nickase domain of banana bunchy top virus.
T2 sequence (residues 1-94, tag not shown): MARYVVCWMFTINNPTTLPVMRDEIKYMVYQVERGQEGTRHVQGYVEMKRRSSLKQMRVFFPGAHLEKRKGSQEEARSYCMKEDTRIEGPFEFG
As to the method: as §1
In test [3] the test system is T3, Rep nickase domain of cabbage leaf curl virus.
T3 sequence (residues 1-116, tag not shown): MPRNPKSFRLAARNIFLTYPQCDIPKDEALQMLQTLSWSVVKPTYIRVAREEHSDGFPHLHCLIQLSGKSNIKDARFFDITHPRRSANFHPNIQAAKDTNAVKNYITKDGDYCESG
How it is done: as §1
The subject of test [4] is T4, Rep nickase domain of chickpea chlorotic dwarf virus.
T4 sequence (residues 1-124, tag not shown): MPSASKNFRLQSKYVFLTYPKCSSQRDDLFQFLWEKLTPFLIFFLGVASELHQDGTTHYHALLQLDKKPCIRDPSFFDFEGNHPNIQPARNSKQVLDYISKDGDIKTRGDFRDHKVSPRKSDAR
How it is done:
as §1

The test system of test [5] is T5, Rep nickase domain of faba bean necrotic yellows virus.
T5 sequence (residues 1-98, tag not shown): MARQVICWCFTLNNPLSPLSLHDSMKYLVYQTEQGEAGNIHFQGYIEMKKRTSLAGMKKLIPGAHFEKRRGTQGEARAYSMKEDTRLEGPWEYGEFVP
How it is done: as §1
Test [6] concerns T6, Rep nickase domain of maize striate mosaic virus.
T6 sequence (residues 1-117, tag not shown): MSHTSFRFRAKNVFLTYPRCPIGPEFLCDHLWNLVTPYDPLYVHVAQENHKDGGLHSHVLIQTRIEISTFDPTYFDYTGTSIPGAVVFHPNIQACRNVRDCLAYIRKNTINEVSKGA
As to the method: as §1
The test system of test [7] is T7, Rep nickase domain of porcine circovirus 2.
T7 sequence (residues 2-116, tag not shown): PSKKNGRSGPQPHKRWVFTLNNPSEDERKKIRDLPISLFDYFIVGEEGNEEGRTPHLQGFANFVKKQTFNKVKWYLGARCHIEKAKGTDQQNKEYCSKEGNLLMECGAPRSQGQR
As to the method: as §1
For test [8], the system named is T8, Rep nickase domain of tomato golden mosaic virus.
T8 sequence (residues 1-124, tag not shown): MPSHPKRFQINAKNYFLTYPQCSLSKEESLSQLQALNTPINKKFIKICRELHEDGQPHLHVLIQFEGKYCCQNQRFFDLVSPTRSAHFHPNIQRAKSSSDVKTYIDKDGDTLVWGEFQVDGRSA
As to the method: as §1
Test [9] relates to T9, Rep nickase domain of tomato yellow leaf curl virus.
T9 sequence (residues 1-136, tag not shown): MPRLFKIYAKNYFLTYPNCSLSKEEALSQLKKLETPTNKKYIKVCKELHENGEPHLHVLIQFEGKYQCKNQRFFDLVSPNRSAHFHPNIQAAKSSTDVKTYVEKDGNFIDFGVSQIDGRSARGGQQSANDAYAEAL
As to the method: as §1
Test [10] relates to T10, Rep nickase domain of wheat dwarf virus.
T10 sequence (residues 1-137, tag not shown): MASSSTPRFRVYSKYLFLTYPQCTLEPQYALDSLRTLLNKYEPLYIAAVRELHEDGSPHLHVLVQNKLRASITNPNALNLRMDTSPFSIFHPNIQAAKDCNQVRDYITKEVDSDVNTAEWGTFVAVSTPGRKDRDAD
As to the method:
as §1

This is one part of the list. One pool of 16,384 single-stranded DNAs met each Rep nickase domain in vitro for 1 h at 37 °C with 3 µM enzyme; only the middle of the 90-letter strands is printed. A value is the log2 ratio of uncut reads to the pool without enzyme; uncut sequences lie near 0, cut ones below; no hit call is given. The scaling is to total reads; values above 0 arise when much of the pool is cut.

In the case of TCGCGCT, the “uncleaved DNA left (log2)” value was -0.07 in test [1]; -0.171 in [2]; -0.474 in [3]; -0.918 in test [4]; -0.0275 in [5]; -0.85 in test [6]. Besides, the “uncleaved DNA left (log2)” value in test [7] is -0.147; in [8] it was -0.119; in test [9] it was -0.117; in [10] it was -0.106.

TATCATC: the “uncleaved DNA left (log2)” value in test [1] is -0.0262; in [2], -0.044; in test [3] it was -0.0395; in test [4], -0.292; in test [5], -0.187; in test [6], -0.497. Moreover, the “uncleaved DNA left (log2)” value is -0.1 in test [7], -0.159 in [8], 0.0145 in [9] and -0.0632 in test [10].

Take CCGAATA: the “uncleaved DNA left (log2)” value in test [1] was 0.103; in test [2], -0.0212; in test [3], 0.128; in [4] it was -0.854; in test [5] it was 0.163; in [6], -0.0738. For the same sequence, the “uncleaved DNA left (log2)” value in [7] is 0.0375; in [8] it was 0.0911; in [9], 0.0877; in [10] it was 0.0834.

In the case of ATTCCAT, the “uncleaved DNA left (log2)” value was -0.0959 in test [1]; -0.0263 in [2]; 0.0816 in [3]; -0.61 in test [4]; 0.0738 in test [5]; -0.472 in [6]. In addition, the “uncleaved DNA left (log2)” value in test [7] is -0.834; in [8] it was 0.0231; in test [9], 0.0018; in test [10] it was 0.148.

As to TAGCGTC, the “uncleaved DNA left (log2)” value is -0.0182 in test [1]; -0.132 in test [2]; -0.427 in test [3]; -0.751 in [4]; -0.0172 in test [5]; -0.848 in [6]. For the same sequence, the “uncleaved DNA left (log2)” value in test [7] was -0.0477; in [8], -0.177; in test [9], -0.134; in [10], -0.0662.

Consider AGTGTCG, for which the “uncleaved DNA left (log2)” value in test [1] is -0.193; in [2], -0.174; in [3] it was -0.795; in test [4], -0.587; in test [5] it was 0.03; in [6], -0.907. The “uncleaved DNA left (log2)” value in test [7] was -0.0427; in test [8], -0.163; in [9], -0.0812; in test [10], -0.14.

Regarding GATAGCT, the “uncleaved DNA left (log2)” value was 0.0655 in [1]; -0.0263 in test [2]; 0.038 in test [3]; -0.861 in test [4]; 0.0757 in [5]; -0.3 in test [6]. The “uncleaved DNA left (log2)” value was -0.158 in test [7], 0.0351 in test [8], -0.0104 in test [9] and 0.0573 in [10].

Turning to GGTCACG, the “uncleaved DNA left (log2)” value in test [1] is -0.00263; in test [2], -0.0875; in test [3] it was -0.386; in test [4], -0.234; in test [5], -0.0527; in [6] it was -0.61. Also, the “uncleaved DNA left (log2)” value in test [7] is 0.0466; in test [8] it was -0.0956; in test [9], 0.0354; in test [10], -0.0509.

Turning to ATTACTT, the “uncleaved DNA left (log2)” value is -0.499 in test [1]; -0.706 in [2]; -0.139 in [3]; -2.54 in test [4]; 0.155 in test [5]; -0.417 in [6]. The “uncleaved DNA left (log2)” value was -2.97 in test [7], 0.0429 in [8], 0.125 in test [9] and 0.0581 in test [10].

Consider CGTTTAA, for which the “uncleaved DNA left (log2)” value is 0.0741 in test [1]; 0.0962 in test [2]; 0.0406 in test [3]; -0.0139 in [4]; 0.0196 in test [5]; -0.184 in test [6]. Also, the “uncleaved DNA left (log2)” value in test [7] was 0.0446; in test [8], -0.0276; in test [9] it was 0.0205; in [10] it was 0.0237.

For the sequence CTCTGCG, the “uncleaved DNA left (log2)” value is 0.0418 in test [1]; 0.121 in test [2]; -0.578 in test [3]; 0.413 in test [4]; 0.022 in test [5]; -0.24 in [6]. In addition, the “uncleaved DNA left (log2)” value in test [7] is 0.138; in test [8], 0.0271; in test [9], -0.166; in test [10], 0.0466.

Regarding AGCAGGT, the “uncleaved DNA left (log2)” value in test [1] is 0.0754; in test [2], 0.0624; in test [3], 0.301; in test [4], 0.695; in test [5], -0.0324; in [6], 1.1. In addition, the “uncleaved DNA left (log2)” value in [7] is -0.0847; in [8] it was 0.0497; in test [9], -0.0744; in [10], -0.0297.

GGTTCAG: the “uncleaved DNA left (log2)” value in [1] amounted to 0.0367; in test [2] it was 0.0843; in test [3], 0.617; in test [4], 1.31; in [5], 0.0378; in test [6], 1.33. In addition, the “uncleaved DNA left (log2)” value came to 0.233 in test [7], 0.0784 in test [8], 0.116 in test [9] and 0.171 in [10].

Regarding TGGATGT, the “uncleaved DNA left (log2)” value in test [1] was 0.0272; in test [2], 0.0805; in test [3], 0.672; in [4], 1.54; in test [5], -0.137; in test [6] it was 1.74. In addition, the “uncleaved DNA left (log2)” value in [7] is 0.169; in test [8] it was -0.0201; in test [9], 0.119; in test [10], 0.113.
